# Test results: the supplement of paper PMC8285479
# Structures can show the parent of a compound that is named as a salt. ± gives the standard deviation of the averaged measurements. Over roughly 1,900 compounds, “normalised cell viability (NPI; 0 = phenylarsine oxide control, 1 = DMSO control)” has its median near 1; the lowest 2% begin near 0.039. Some of the results follow.
# System: NCI-H1944
# Assay: normalised cell viability (NPI; 0 = phenylarsine oxide control, 1 = DMSO control) (fraction of DMSO control); NCI-H1944 is a non-small cell lung cancer line; higher = more viable cells (less compound toxicity)
# Conditions: 6 days
# [1] = glucocorticoid arm: hydrocortisone 2.75 uM co-treatment, compound 1 µM
# [2] = glucocorticoid arm: hydrocortisone 2.75 uM co-treatment, compound 5 µM
# [3] = glucocorticoid arm: hydrocortisone 2.75 uM pre-treated 2 days and continued, compound 1 µM
# [4] = glucocorticoid arm: hydrocortisone 2.75 uM pre-treated 2 days and continued, compound 5 µM
# [5] = glucocorticoid arm: vehicle, compound 1 µM
# [6] = glucocorticoid arm: vehicle, compound 5 µM
# 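Also: CTB read-out in 384-well plates, mean of triplicate wells, normalised per plate against 1 µM phenylarsine oxide and 0.1% DMSO, compounds added 24 h after seeding.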
Compound,normalised cell viability [1],normalised cell viability [2],normalised cell viability [3],normalised cell viability [4],normalised cell viability [5],normalised cell viability [6]
CC(=O)N1CCN(c2ccc(OCC3COC(Cn4ccnc4)(c4ccc(Cl)cc4Cl)O3)cc2)CC1 (centres undefined) [Ketoconazole],0.9503 ± 0.0045,0.934 ± 0.022,0.992 ± 0.016,1.06 ± 0.061,0.975 ± 0.001,0.993 ± 0.011
CC(C)NCC(O)c1ccc(NS(C)(=O)=O)cc1 (centres undefined) [Sotalol],1 ± 0.014,0.993 ± 0.032,1.037 ± 0.0058,1.01 ± 0.017,1.01,0.9967 ± 0.0035
CC1=C(C)C(=O)C(CCCCC#CCCCC#CCO)=C(C)C1=O,0.981 ± 0.01,0.936 ± 0.01,0.9697 ± 0.0065,0.934 ± 0.0085,0.97 ± 0.018,0.9673 ± 0.004
CN(C)CCCCSC(=N)N,1.001 ± 0.0081,1.01 ± 0.011,1.02 ± 0.026,1.02 ± 0.011,0.9953 ± 0.0064,0.9883 ± 0.005
C1=N/C2=N/c3ccc(OCCN4CCCC4)c(c3)COC/C=C/COCc3cccc(c3)C(=C1)N2 [Pacritinib (SB1518)],0.6 ± 0.36,0.309 ± 0.33,0.724 ± 0.19,0.37 ± 0.38,0.531 ± 0.51,0.194 ± 0.21
CC(C)(C)NS(=O)(=O)c1cncc(-c2cc(F)c3nc(N)nn3c2)c1,1 ± 0.0095,0.988 ± 0.018,1.01 ± 0.022,0.984 ± 0.032,1.01 ± 0.013,1.01
CCN(CC)CCCC(C)Nc1c2ccc(Cl)cc2nc2ccc(OC)cc12 (centres undefined) [Quinacrine dihydrochloride],0.999 ± 0.021,0.00304 ± 0.0019,1.01 ± 0.023,1.01 ± 0.014,0.995 ± 0.014,0.00159 ± 0.0012
Cn1c(=O)c2[nH]c(-c3ccc(S(=O)(=O)O)cc3)nc2n(C)c1=O [8-(p-Sulfophenyl)theophylline],0.984 ± 0.0061,0.998 ± 0.011,0.9847 ± 0.0035,0.976 ± 0.013,0.983 ± 0.013,0.9763 ± 0.0051
C[C@@H]1O[C@@H]1P(=O)(O)O [Phosphomycin disodium],1.001 ± 0.0078,1.01 ± 0.018,0.9957 ± 0.0021,1.03 ± 0.05,1.01 ± 0.011,1.02 ± 0.015
CC#CCOC(=O)c1c(C)nc2sc3c(c2c1N)CCC(O)C3 (centres undefined),1.02 ± 0.021,1 ± 0.019,1.03 ± 0.038,1.03 ± 0.017,1.013 ± 0.0058,1.013 ± 0.0058
CN1CCc2cccc3c2C1Cc1ccc(O)c(O)c1-3 (stereo not drawn) [R-(-)-Apomorphine hydrochloride hemihydrate],1.007 ± 0.0058,1.06 ± 0.015,1.013 ± 0.0058,1.045 ± 0.0071,0.999 ± 0.0095,1.01
NC(=O)c1ccncc1 [Isonicotinamide],0.9957 ± 0.0059,1.01 ± 0.018,0.996 ± 0.016,1.01 ± 0.015,1.001 ± 0.0071,0.999 ± 0.015
O=C(O)C1=CCNCC1 [Isoguvacine hydrochloride],1.01 ± 0.015,1.03 ± 0.015,1.02 ± 0.015,1.03 ± 0.015,0.99933 ± 0.00058,1 ± 0.0095
CNC(=C[N+](=O)[O-])NCCSCc1csc(CN(C)C)n1 [Nizatidine],1.03 ± 0.017,1 ± 0.034,1.03 ± 0.015,1.01 ± 0.028,0.9993 ± 0.0011,0.997 ± 0.003
CC(C)CN(C[C@@H](O)[C@H](Cc1ccccc1)NC(=O)O[C@H]1CCOC1)S(=O)(=O)c1ccc(N)cc1 [Amprenavir (Agenerase)],0.976 ± 0.018,1.01 ± 0.035,0.994 ± 0.018,1.02 ± 0.01,0.988 ± 0.012,0.9963 ± 0.0063
CCC1=C[C@@H]2CN(C1)Cc1c([nH]c3ccccc13)[C@@](C(=O)OC)(c1cc3c(cc1OC)N(C)[C@H]1[C@@](O)(C(=O)OC)[C@H](OC(C)=O)[C@]4(CC)C=CCN5CC[C@]31[C@@H]54)C2 [Vinorelbine tartrate],0.327 ± 0.0017,0.35 ± 0.02,0.629 ± 0.017,0.683 ± 0.036,0.0577 ± 0.0028,0.0356 ± 0.0026
O=c1ccc2c(OCCCCc3ccccc3)c3ccoc3cc2o1 [Psora-4],1.007 ± 0.0058,1.02,1.02 ± 0.015,1.02 ± 0.014,0.986 ± 0.012,0.9937 ± 0.0071
C=CC(=O)Nc1cccc(Nc2nc(Nc3ccc(NC4CN(CCF)C4)cc3OC)ncc2C(F)(F)F)c1,0.941 ± 0.011,0.585 ± 0.048,0.863 ± 0.018,0.658 ± 0.071,0.961 ± 0.016,0.635 ± 0.013
NC(=O)c1cc[n+](CC2=C(C(=O)O)N3C(=O)[C@@H](NC(=O)C(c4ccccc4)S(=O)(=O)[O-])[C@H]3SC2)cc1 (some centres undefined) [Cefsulodin sodium salt hydrate],1.01,1.013 ± 0.0058,1.02,1.01 ± 0.014,0.997 ± 0.013,0.9997 ± 0.0096
CCn1cc(C(=O)O)c(=O)c2cc(F)c(N3CCNC(C)C3)c(F)c21 (centres undefined) [Lomefloxacin hydrochloride],0.997 ± 0.012,0.971 ± 0.026,1 ± 0.018,0.941 ± 0.027,1 ± 0.0095,1.002 ± 0.0076
CS(=O)(=O)Nc1ccc([N+](=O)[O-])cc1Oc1ccccc1 [Nimesulide],1.007 ± 0.0058,1.01 ± 0.022,1.01 ± 0.01,1.05 ± 0.064,0.991 ± 0.0036,1 ± 0.0089
c1ccc2c(Oc3nc(Nc4ccc(N5CCOCC5)cc4)c4ncn(C5CCCCC5)c4n3)cccc2c1 [Purmorphamine],1.03 ± 0.01,1.03,1.03 ± 0.011,1.03 ± 0.027,1.023 ± 0.0058,1.017 ± 0.0058
C[C@]12C=CC(=O)C=C1CC[C@@H]1C2=CC[C@]2(C)[C@@H](C(=O)CN3CCN(c4cc(N5CCCC5)nc(N5CCCC5)n4)CC3)CC[C@@H]12,0.991 ± 0.0066,1.01 ± 0.011,1.03 ± 0.026,1.07 ± 0.011,0.9937 ± 0.006,1.003 ± 0.0061
COc1cc2nccc(Oc3ccc(NC(=O)Nc4ccc(F)cc4F)c(F)c3)c2cc1OC,1.05 ± 0.011,1.06 ± 0.01,1.037 ± 0.0058,1.04 ± 0.021,1.003 ± 0.0063,1.013 ± 0.0058
